These are yes or no findings as the source states them, for the method shown. Some results given as binding are weak or reduced against the parent protein; the word gives no strength. Sequences can lack the tags named with a protein.
How the values were obtained:
Test in all cases: two-hybrid; L40 yeast reporter strain cotransformed with LexABD-Vpr (bait) and Gal4AD hybrids (prey); growth on medium without histidine and β-gal filter assay (1 h to 4 h at 30°C)
[1] = target: Vpr-L23F fused to the LexA DNA binding domain (HIV-1 Lai isolate) (UniProt P05928)
[2] = target: wild type HIV-1 Vpr (Lai isolate) fused to the LexA DNA binding domain (HIV-1 Lai isolate) (UniProt P05928)
[3] = target: Vpr-L67Q fused to the LexA DNA binding domain (HIV-1 Lai isolate) (UniProt P05928)
[4] = target: Vpr-R73G fused to the LexA DNA binding domain (HIV-1 Lai isolate) (UniProt P05928)

With “UNG2 fused to the Gal4 activation domain (from UniProt P13051-1 1-313)” the binding [1] was “binds”, the binding [2] was “binds” and the binding [3] was “binds”. For the same molecule, the binding [4] was “binds”.

B1: human CG1 nucleoporin fused to the Gal4 activation domain (protein, UniProt O15504 1-423)
chain: MAICQFFLQGRCRFGDRCWNEHPGARGAGGGRQQPQQQPSGNNRRGWNTTSQRYSNVIQPSSFSKSTPWGGSRDQEKPYFSSFDSGASTNRKEGFGLSENPFASLSPDEQKDEKKLLEGIVKDMEVWESSGQWMFSVYSPVKKKPNISGFTDISPEELRLEYHNFLTSNNLQSYLNSVQRLINQWRNRVNELKSLNISTKVALLSDVKDGVNQAAPAFGFGSSQAATFMSPGFPVNNSSSDNAQNFSFKTNSGFAAASSGSPAGFGSSPAFGAAASTSSGISTSAPAFGFGKPEVTSAASFSFKSPAASSFGSPGFSGLPASLATGPVRAPVAPAFGGGSSVAGFGSPGSHSHTAFSKPSSDTFGNSSISTSLSASSSIIATDNVLFTPRDKLTVEELEQFQSKKFTLGKIPLKPPPLELLNV
In the case of B1, the binding [1] is reported as “no binding”, the binding [2] is reported as “binds” and the binding [3] is reported as “binds”. The binding [4] was “binds”.
